PMC11628618
Results are given in words; binding and its absence hold for the method and conditions named. For part of these data: Binding seen in cells or lysates may run through a third protein. Some results given as binding are weak or reduced against the parent protein; the word gives no strength. Sequences can lack the tags named with a protein.

What was measured:
[1] = target: T1, GFP-MmsF fusion protein (Magnetospirillum gryphiswaldense MSR-1) (UniProt A4U547); assay: co-IP; isolated magnetosomes solubilized with 0.5% Triton X-100 (10 mM HEPES, 1 mM EDTA, 50 mM NaCl, pH 7.4), diluted to 0.1% Triton X-100; GFP-Trap agarose, 1 h at 4 °C; Western blot with GFP and MamJ antibodies
T1 sequence: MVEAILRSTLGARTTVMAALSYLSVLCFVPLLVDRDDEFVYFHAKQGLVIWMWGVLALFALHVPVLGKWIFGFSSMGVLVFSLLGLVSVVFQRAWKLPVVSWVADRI

[2] = target: T2, GFP-MamF fusion protein (Magnetospirillum gryphiswaldense MSR-1) (UniProt Q6NE74); assay: as above
T2 sequence: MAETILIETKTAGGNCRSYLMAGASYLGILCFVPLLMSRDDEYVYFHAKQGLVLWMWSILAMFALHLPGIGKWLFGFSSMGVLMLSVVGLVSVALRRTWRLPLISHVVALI

[3] = target: T3, MamF, bacterial two-hybrid fusion (Magnetospirillum gryphiswaldense MSR-1) (UniProt Q6NE74); assay: two-hybrid; adenylate cyclase-based bacterial two-hybrid (BACTH), T18 and T25 fusions co-transformed into E. coli BTH101; spotted on M63 maltose/X-Gal/IPTG agar, 28 °C, one day; only homogeneous intense blue counted as positive
T3 sequence: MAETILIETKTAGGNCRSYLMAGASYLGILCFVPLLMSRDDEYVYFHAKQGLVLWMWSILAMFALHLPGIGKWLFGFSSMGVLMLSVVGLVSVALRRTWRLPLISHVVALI

[4] = target: T4, MmsF, bacterial two-hybrid fusion (Magnetospirillum gryphiswaldense MSR-1) (UniProt A4U547); assay: as above
T4 sequence: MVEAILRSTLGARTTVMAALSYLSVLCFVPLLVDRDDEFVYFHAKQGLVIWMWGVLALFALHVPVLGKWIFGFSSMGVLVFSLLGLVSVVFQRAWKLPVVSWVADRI

Row | Binder | binding [1] | binding [2] | binding [3] | binding [4]
1 | MamJ (magnetosome membrane adaptor protein) (protein, UniProt V6F519 1-466) MAKNRRDRGTDLPGDGDQKISTGPEIVSVTVHPSPNLAAAAKPVQGDIWASLLESSPWSANQGGLVETAQPPSAPIRSQDPVPVADLVNRWSQPIWRTAPLAGNAESSEEGVVAPSLTQSDSVLAVSDLVIDVQPETDAEVEVSIEPEPALVEPVIEIEAEAAEVEPEPAPVADLVNRWAQPIWRTAPLAGNAESSEEGVVAPSLTQSDSVLAVSDLVIDVQPEANAEVEVSIEPEPALVEPVIEIEAEAAEVEPEPAPVEPVIEIEAEAAEVEPEPAPVEPVIEIEAEAAEVEPEPAPVEPAIEIEAIRVELEPVLIDEVVELVTEFEYSQAESVASADLIANPAPAESSRLAELLDEAAAIAAPAVAVAVEATRQPNKITASVKKRAPVQEVPVEDLLGGIFGVAGSAVRGVFTIGGGFVDGVVKGGRLVGSNVVAGTRRLAQTIEVSCGSCSSPKCDAEDKNK | binds weakly | no binding |  | 
2 | MamG (protein, UniProt Q6NE75 1-84) MIKGIAGVGGTALGVGGGVAAPPVSAAAVGSTLLAGKGVCLGLGLGLGAWGPVLLGVAGLACAASLCDYLKNRKAQAEASAEPA |  |  | no binding | no binding
3 | Mms6 (protein, UniProt Q6NE76 1-136) MGEMEREGATAKVGAGKVGAGKVGAAKAGAAPAAAQGAGTKVVAAQGAGTKVVAAQGAGAKAAAVGVGKVGAGAKAVGGTIWSGKGLALGLGMGLGAWGPLILGVVGAGAVYAYMKSRDIEAAQSDEEVELRDALS |  |  | no binding | no binding
